# The campaign covered roughly 380,000 compounds. About 4,000 (1.1%) were called active. The inconclusive results got no clear call from the source; some entries with a clear call stand among them for comparison. The call rests on the fitted dose curve; in most records, active means well fitted activation curve with a large enough effect; inconclusive means small, poorly fitted or top-dose-only effect; inactive means no such curve, though single readings can be large or run the other way. Potencies of inconclusive entries are doubtful fits and often do not repeat.
# Experiment: qHTS Assay to Identify Small Molecule Activators of BRCA1 Expression; further: nearly all actives have a fitted effect of over 80% in size
# Details: MCF7-BRCA1-FFLuc reporter, luminescence, 48 h; activation: at 46.1 µM (top of the series), scaled: vehicle 0%, 10 µM genistein 100% unless noted
# Outline: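 First, MCF7-BRCA1-FFLuc cells (2000/well) attach for 2 h; next, compounds are pin-added and incubated 48 h at 37 °C; finally, luciferase reagent is added and luminescence read after 15 min.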
# Potency means the concentration at half of the fitted maximal effect; tags describe the fitted curve by direction and shape.
Compound,Potency,activation
NC(=Nc1ccccc1)NC(=O)c1nc(Cl)c(N)nc1N,active: 5.62 µM,
CCCC(=O)Nc1ccc2nn(-c3ccc(OC)cc3)nc2c1,"inconclusive: 1.58 µM [activator, partial curve, poor fit]",
CCN(CC)c1ccc(-c2nc3cnccc3n2C)cc1,"inconclusive: 2 µM [activator, partial curve, poor fit]",
Cc1cc(-c2nnc(-c3cccc(C(F)(F)F)c3)o2)no1,"inconclusive: 15.8 µM [activator, partial curve, poor fit]",
COc1cccc(NCc2nnc(SC(C(=O)N(C)C)c3ccccc3)n2C2CCCCC2)c1 (configuration not stated),inactive,
CC(C)c1ccc(/C=N/NC(=O)CCNC(=O)c2ccccc2)cc1,"inconclusive: 14.1 µM [activator, partial curve, poor fit]",
O=C(NNc1nc2ccccc2s1)Nc1ccccc1,"inconclusive: 7.08 µM [activator, full curve, poor fit]",
CCOC(=O)CCC(=O)NNC(=O)c1ccc(NC(=O)c2ccccc2)cc1,inactive,
Clc1ccc(OCc2nnc(-c3ccccc3Br)o2)c(Cl)c1,active: 3.16 µM,
C/C(=N/NC(=O)c1ccc(Br)s1)c1cccnc1,"inconclusive: 35.5 µM [activator, single point]",
CC(=O)N(C)c1ccc(NC(=O)Nc2ccc(Cl)cc2)cc1,active: 11.2 µM,
CCOC(=O)C1(C)C=C(Nc2cccc(C(=O)O)c2)C(=O)N1c1ccccc1 (configuration not stated),"inconclusive: 0.355 µM [activator, full curve, poor fit]",
CCOc1ccc(N/C(C)=C/C(=O)c2ccc3c(c2)OCCO3)cc1,active: 4.47 µM,
COc1cccc(NC(=O)CN(C)S(=O)(=O)/C=C/c2ccccc2)c1,inactive,
Cc1ccc(Cn2ccc(NC(=O)c3cc(C)on3)n2)cc1,"inconclusive: 17.8 µM [activator, single point]",
Cc1nc(SCc2ccc(Cl)c(Cl)c2)n[nH]1,"inconclusive: 12.6 µM [activator, partial curve, poor fit]",
COc1ccc(C(=O)Oc2c(CN3CCOCC3)cc(Cl)c3cccnc23)cc1OC,inactive,
CN1/C(=C\C(=O)c2cncc(Br)c2)C(C)(C)c2ccccc21,inactive,
CC(C)(C)c1ccc(CNc2ccc([N+](=O)[O-])cn2)cc1,"inconclusive: 14.1 µM [activator, partial curve, poor fit]",
Cc1cc(C)c2c(N)c(C(=O)NCc3ccco3)sc2n1,"inconclusive: 25.1 µM [activator, single point]",
CCc1n[nH]c(=S)n1/N=C/C(C)=C\c1ccccc1,"inconclusive: 17.8 µM [activator, single point]",
CCC1=C/C(=C/c2sc3ccccc3[n+]2CC)CC(C)(C)C1,inactive,
Cn1c(SCc2ccccc2Cl)nnc1-c1cnccn1,"inconclusive: 11.2 µM [activator, partial curve, poor fit]",
CCCn1c(N)c(C(=O)COC(=O)c2c(C)noc2C)c(=O)n(C)c1=O,inactive,

Compound,Potency,activation
Cc1cc(C(=O)COC(=O)Cc2c(F)cccc2Cl)c(C)n1C,active: 5.01 µM,
CCOC(=O)c1cn[nH]c1NC(=S)Nc1ccccc1,"inconclusive: 1.41 µM [activator, full curve, poor fit]",
CN(C)/C=C/C(=O)c1cnc(-c2ccccc2)s1,"inconclusive: 10 µM [activator, partial curve, poor fit]",
C=CCn1cnc2c(nnn2-c2ccc(C)c(C)c2)c1=O,"inconclusive: 11.2 µM [activator, partial curve, poor fit]",
COc1ccc(C(=O)N/N=C/c2ccccn2)cc1,"inconclusive: 1.58 µM [activator, full curve, poor fit]",
CC(C)CNC(=O)/C=C/c1cccs1,"inconclusive: 35.5 µM [activator, single point]",
Cc1ccc(-n2c(C)csc2=N)cc1,"inconclusive: 2.51 µM [activator, full curve, poor fit]",
Clc1ccc(OCc2nc(-c3ccncc3)no2)c(Br)c1,active: 3.98 µM,
O/N=C/c1ccnc(SCc2ccccc2)n1,"inconclusive: 14.1 µM [activator, partial curve, poor fit]",
COc1cc(CNCc2ccccc2)ccc1OCC(O)c1ccccc1 (configuration not stated),inactive,
O=C1c2cccc3c([N+](=O)[O-])ccc(c23)C(=O)N1CCc1ccccn1,inactive,
CC(=NNC(=S)Nc1ccccc1Cl)c1ccccn1,,inconclusive: -63.9% [activator]
CC(C)(C)n1ncc2c(=O)n(CC(=O)NCc3ccccc3Cl)cnc21,"inconclusive: 0.631 µM [activator, full curve, poor fit]",
CCCCCCCCn1ccc(=N)cc1,inactive,
COc1ccc(-c2csc(N3CCC(c4ccccc4)C3)n2)cc1 (configuration not stated),"inconclusive: 14.1 µM [activator, partial curve, poor fit]",
CCCCOC(=S)NC(=O)c1sc2ccccc2c1Cl,inactive,
O=C(c1cc(COc2c(F)cccc2F)on1)N1CCC(c2ccccc2F)C1 (configuration not stated),"inconclusive: 10 µM [activator, partial curve, poor fit]",
COc1ccc(CNC(=O)C2(c3ccc(Cl)cc3)CC2)cc1,inactive,
O=C(Cc1c[nH]c2ccccc12)NCc1ccc2c(c1)OCO2,"inconclusive: 14.1 µM [activator, single point]",
COc1cc2c(cc1NCc1ccc3c(c1)OCO3)oc1ccccc12,"inconclusive: 17.8 µM [activator, single point]",
CN(CCOc1ccccc1)C(=O)c1ccc2c(c1)OCO2,"inconclusive: 10 µM [activator, partial curve, poor fit]",
COc1ccc(-c2noc(CCc3ccccc3)n2)cc1,"inconclusive: 11.2 µM [activator, partial curve, poor fit]",
Cc1cccc(C(=O)Nc2ccc3c(c2)ncn3C)c1,"inconclusive: 1.58 µM [activator, partial curve, poor fit]",

# — PubChem BioAssay AID624202 (National Center for Advancing Translational Sciences (NCATS), 2012)
